Experimental data published in US20110229476A1 (Bayer, published 2011).

Biological target: T1, tumor-associated antigen RG1 (Homo sapiens (Human), UniProt Q9BUD6 27-331)
T1 construct: Coated directly on 96-well plates at 1 ug/ml; also called RGI
T1 sequence: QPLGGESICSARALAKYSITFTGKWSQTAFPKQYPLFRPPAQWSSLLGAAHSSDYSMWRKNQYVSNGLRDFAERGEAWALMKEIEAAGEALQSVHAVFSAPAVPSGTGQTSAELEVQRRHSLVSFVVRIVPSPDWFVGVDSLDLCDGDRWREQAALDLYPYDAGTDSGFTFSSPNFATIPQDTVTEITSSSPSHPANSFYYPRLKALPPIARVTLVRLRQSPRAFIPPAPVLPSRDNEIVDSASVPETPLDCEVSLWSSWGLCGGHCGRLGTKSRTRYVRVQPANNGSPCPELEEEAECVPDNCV
Test: RG1-binding ELISA, RG1 coated on plate, 4-parameter fit

B1: 3E10-Linker1-19G9 IgG-like bispecific antibody (bispecific antibody)
light: NFMLTQPHSVSASPGKTVTISCTRSSGSVASYYVQWYQQRPGSSPTTVIYEDNHRPSGVPDRFSGSIDTSSNSASLTISGLKTEDEADYYCQSYDSNNLVVFGGGTKLTVLGASDDDDK[sequence of about 200 residues omitted]
heavy: QVNLRESGGTLVQPGGSLRLSCAASGFSFTDAWMSWVRQAPGKELEWVSSISGSGGSTYYAGSVKGRFTISRDNSKNTLYLQMNSLRAEDTAVYYCARVLSLTDYYWYGMDVWGQGTLVTVSASDDDDKEVQLVQSGGGLVQPGGSLRLSCAGSGFTFSSYVMHWLRQAPGKGLEWVSVIGTGGVTHYADSVKGRFTISRDNAKNSLYLQMNSLRAEDTAVYYCARWGYYGSGSYENDAFDIWGQGTMVTVSSASTKGPSVFPLAPSSKSTSGGTAALGCLVKDYFPEPVTVSWNSGALTSGVHTFPAVLQSSGLYSLSSVVTVPSSSLGTQTYICNVNHKPSNTKVDKRV[sequence of human IgG1 Fc omitted]
notes: VL3E10-linker-VL19G9-Ckappa and VH3E10-linker-VH19G9-human IgG1 constant region; expressed in CHO-S cells; also called 3E10-Linkerl-19G9
IC50: 1.1 nM
